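These data come from cells grown in 96-well plates and exposed to compound for 48 hours at five concentrations. The concentration for 50% growth inhibition is given as GI50.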 Calls of active or inactive are those of the source. Cut-off read from the data, not from the text of the source: active = GI50 up to about 1.1 µM and inactive = higher.

In the assay the test system is NCI-H322M. The experiment in a line: NCI-60 cell line screen, 48 h.
In the case of `CN(C)c1ccc(/C=N/n2c(-c3ccccc3)nc3ccccc3c2=O)cc1`, the GI50 is inactive: > 100 µM.
Consider `O=Cc1c2c(cc3c1CC1(C3)Cc3cc4c(c(C=O)c3C1)CCCC4)CCCC2`, for which the GI50 is inactive: 31.3 µM.
Under `CCOC(=O)CCC(C(=O)OCC)n1nc2ccc(Nc3c(C)[n+]([O-])c4cc(Cl)ccc4[n+]3[O-])cc2n1` (stereo unspecified) stands inactive: > 100 µM; under `Cc1nc2ccccc2n1C(=O)c1c(F)c(F)c(F)c(F)c1F`, inactive: 36.4 µM.
The figure for `CC(=O)OC/C=C/Cn1nc(Br)c(=O)[nH]c1=O` is inactive: > 100 µM; for `O=C(O)CCC(=O)N1C/C(=C\c2ccccc2)C(=O)/C(=C/c2ccccc2)C1` it is inactive: 8.57 µM.
Under `O=C(Nc1nc2ccc([N+](=O)[O-])cc2s1)C(=O)C(C1OC(=O)c2ccccc21)[N+](=O)[O-]` (stereo unspecified) stands inactive: > 100 µM; under `O=S(=O)(/C=C/c1ccc(Cl)cc1Cl)Cc1ccccc1CS(=O)(=O)/C=C/c1ccc(Cl)cc1Cl`, inactive: > 100 µM.
For the molecule `CCS[C@H]1NC(=O)C1[C@H](C)O[Si](C)(C)C(C)(C)C` (stereo partly specified), the GI50 was inactive: > 100 µM.
Consider `O=c1[nH]cc(COCC(F)(F)C(F)(F)C(F)(F)C(F)F)c(=O)[nH]1`, for which the GI50 was inactive: > 100 µM.
The figure for `COc1cc(C2c3cc4c(cc3OC(NNc3ccccc3)C2C)OCO4)cc(OC)c1O` (stereo unspecified) is inactive: 4.56 µM; for `O=C1CSC(c2c[nH]c3ccccc23)N1c1ccc(Cl)cc1Cl` (stereo unspecified) it is inactive: > 100 µM; for `CC(=O)C(CN(CC(C)C)CC(C)C)C(c1ccccc1)c1c(O)c2ccccc2oc1=O` (stereo unspecified) it is inactive: > 100 µM.
Under `CC1SC2=NC3=C(c4ccccc4C3=O)C(c3ccc(Br)cc3)N2C1=O` (stereo unspecified) stands inactive: > 100 µM.
Under `Cc1c(C(=O)C/C(=N/NC(=O)CC#N)C(N)=O)[n+]([O-])c2ccccc2[n+]1[O-]` stands inactive: > 100 µM; under `COc1cc2c(cc1O)C(=O)O[C@@H]1CC=C3CCN(C)[C@H]3[C@H]21`, inactive: > 25 µM.
Regarding `O=C(O)c1ccc(NC(c2ccccc2)c2ccc3cccnc3c2O)cc1` (stereo unspecified), the GI50 is inactive: 6.22 µM.
Under `COc1ccc(NC(=S)Nc2cc(C)ccn2)cc1` stands inactive: > 100 µM.
As to `CCCCOCn1c(=O)[nH]c(=O)c2cc(Br)ccc21`, the GI50 is inactive: > 100 µM.
Under `C=C1C(=O)C2(C)OC2(C)C1C(=O)O` (stereo unspecified) stands inactive: > 100 µM; under `COc1ccc2nc3cc(Cl)ccc3c(NCCCCCC(=O)NC(COc3ccc4ccc5cccnc5c4n3)COc3ccc4ccc5cccnc5c4n3)c2c1`, inactive: 19.5 µM.
The figure for `CSc1nc(NC2CCCC2)c2cc[nH]c2n1` is inactive: > 100 µM; for `C/C(=N/Nc1ccc([N+](=O)[O-])cc1[N+](=O)[O-])C(CC(C(=O)NCc1ccccc1)/C(C)=N\Nc1ccc([N+](=O)[O-])cc1[N+](=O)[O-])C(=O)NCc1ccccc1` (stereo unspecified) it is inactive: 1.86 µM.
Under `CC(C)=NNC(=S)NC12CC3CC(CC(C3)C1)C2` stands inactive: > 100 µM.
Consider `CC1(C)CCN2C(=O)C34CCCC3CC21S4` (stereo unspecified), for which the GI50 is inactive: > 100 µM.
Under `CC(C)(C)C1(O)C=C(O)C(=O)N1NC(=O)c1ccccc1Nc1ccccc1` (stereo unspecified) stands inactive: 42.5 µM; under `CO[C@@H]1C[C@H]2[C@@H]3CC[C@H]([C@H](C)CO)[C@@]3(C)CC[C@@H]2[C@@]2(C)CC[C@H]3C[C@]312`, inactive: 90.6 µM; under `O=C(OCc1ccccc1)N1N=NC2C1C1CC(OCc3ccccc3)(OCc3ccccc3)C2O1` (stereo unspecified), inactive: > 100 µM.
Turning to `CN(C)c1cccc(OC(=O)NCCCl)c1`, the GI50 is inactive: > 100 µM.
Regarding `OC1=CN=C(c2ccccc2)Oc2ccccc21`, the GI50 was inactive: > 100 µM.
Under `C/C=C(/C)C(=O)O[C@@H]1CCN2CC[C@H](COC(=O)/C(=C/C)CO)C12` (stereo partly specified) stands inactive: > 100 µM; under `O=c1[nH]nc(-c2ccc([N+](=O)[O-])cc2)[nH]1`, inactive: > 100 µM.
For `COC(=O)/C=C/C(=O)C1C(C(=O)OC)C2(C(=O)OC)CCC1(C(=O)OC)N2` (stereo unspecified), the GI50 is inactive: > 100 µM.
The figure for `CCN(CC)CCOc1ccc(N2Cc3cc(OC)c(OC)cc3C2=O)cc1` is inactive: > 100 µM.
The figure for `COC(=O)c1c(OC(C)=O)ccc2c1c1c(n2Cc2ccccc2)C(=O)c2ccccc2C1=O` is inactive: 27.5 µM; for `Cc1ccc(Cl)c2c1NC(=O)/C2=N\Nc1ccccc1[N+](=O)[O-]` it is inactive: 78 µM.
The figure for `C/C(=N\OCC(O)CNCCSCc1ccccc1)c1ccccc1Cl` (stereo unspecified) is inactive: 17.7 µM; for `COC(=O)c1sc(=NC(=S)N2CCCCC2)sc1C(=O)OC` it is inactive: > 100 µM; for `CC1(C)OCC([C@H]2O[C@@H](CC(=S)NCCCCCCCCCCCCNC(=S)C[C@H]3O[C@@H](C4COC(C)(C)O4)[C@H]4OC(C)(C)O[C@H]43)[C@H]3OC(C)(C)O[C@H]32)O1` (stereo partly specified) it is inactive: > 100 µM.
As for `CCN(CC)CCCNc1nc(=O)[nH]c(C)c1C(=O)Nc1ccc2c(c1)c1ccccc1n2CC`, the GI50 is inactive: > 100 µM.
The figure for `Brc1ccc(C2CC(c3cccc4ccccc34)=Nc3ccccc3S2)cc1` (stereo unspecified) is inactive: > 100 µM; for `OCCCCCNc1c2ccccc2nc2ccccc12` it is inactive: 3.07 µM; for `O=C(CC1(O)C(=O)Nc2ccc(Br)cc21)c1cccc([N+](=O)[O-])c1` (stereo unspecified) it is inactive: 63.7 µM.
The figure for `CC1=NN(c2nc(N)nc(CC#N)n2)C(C)(C)C1` is inactive: > 100 µM; for `CCCCCCCCCCC(C)CCCCCCC(=O)OCC(COP(=O)([O-])OCC[N+](C)(C)C)OC(=O)CCCCCCC(C)CCCCCCCCCC` (stereo unspecified) it is inactive: > 100 µM.
Under `CCCN1C(=O)CC(C)N(Cc2ccccc2Cl)C1=S` (stereo unspecified) stands inactive: 44.6 µM; under `Cc1nc2ccccc2[s+]c1-c1cnc(NC#N)nc1C(=O)Nc1cccc(Cl)c1`, inactive: > 100 µM; under `N#Cc1c(OCCF)c2ccccc2n2c1nc1ccccc12`, inactive: > 100 µM.
Regarding `C[C@]12C/C(=C/O)C(=O)C(O)=C1CC[C@@H]1C2CC[C@@]2(C)C1CC[C@@H]2O` (stereo partly specified), the GI50 was inactive: 22.2 µM.
Under `COC(=O)c1cc(C(=O)OC)cc(-c2ccc3c(c2)-c2nc4c(c(-c5ccc(OC)cc5)c2CC3)CCc2ccc(-c3cc(C(=O)OC)cc(C(=O)OC)c3)cc2-4)c1` stands inactive: 16.6 µM.
The figure for `O=C(Nc1ccccc1)c1cc2ccccc2c(/N=N\c2cccc([N+](=O)[O-])c2)c1O` is inactive: > 100 µM; for `O=C(CCSC1=NCCCN1)c1ccc(F)cc1` it is inactive: 20.1 µM.
Under `Nc1ncnc2c1ncn2C1CC(OC2CCCCO2)C(CO)O1` (stereo unspecified) stands inactive: > 100 µM; under `CN(C)c1nc(N(C)C)nc(N(C)C23CC4CC(CC(C4)C2)C3)n1`, inactive: 21.9 µM.
Regarding `COc1ccc(CNc2nc(NCc3ccc(OC)cc3)nc(NC3CCCCC3)n2)cc1`, the GI50 is active: 1.03 µM.
Under `CC(=O)/C(=C/NC(=S)c1cccnc1)C(=O)Nc1ccccc1C` stands inactive: > 100 µM.
Under `CCN(CC)CC(=O)Nc1ccc2c(c1)C(=O)c1ccc(NC(=O)CN(CC)CC)cc1C2=O` stands inactive: 39.1 µM; under `CC1=NNC(=O)C1C1CC(c2c[nH]c3ccccc23)=NNC1=O` (stereo unspecified), inactive: > 100 µM; under `Nc1nn2c(nc(N)c3c(N)n[nH]c32)c1/N=N\c1ccc(Br)cc1`, inactive: 29.5 µM.
For the molecule `COc1c(C)c(OC)c2c(c1O)[C@@H]1[C@@H]3Cc4c(OC)c(C)c(OC)c(O)c4[C@H](CNC(=O)c4cnc5ccccc5n4)N3[C@@H](C#N)[C@H](C2)N1C`, the GI50 was active: 0.0105 µM.
Under `c1ccc2c(c1)cc1n2CC2CN=NC12` (stereo unspecified) stands inactive: > 100 µM; under `c1ccc(Nc2nn3c(CCCCCCCCc4nnc5sc(Nc6ccccc6)nn45)nnc3s2)cc1`, inactive: 32.1 µM; under `CCOC(=O)C1CC(=O)C=C2CCCCC21` (stereo unspecified), inactive: > 100 µM.
Consider `O=CC1=CCC2c3[nH]c4ccccc4c3CCN2C1` (stereo unspecified), for which the GI50 was inactive: 76 µM.
Under `O=C(NCCOC(=O)OCCNC(=O)NC1CCCCC1)NC1CCCCC1` stands inactive: > 100 µM; under `CC(C)(C)C1=C(Br)C(Br)(C(C)(C)C)OP1(=O)c1ccccc1` (stereo unspecified), inactive: > 100 µM; under `CC[C@@]12CCC(=S)N(CCSc3ccccc3)[C@@H]1c1c(n(S(=O)(=O)c3ccc(OC)cc3)c3ccccc13)CC2`, inactive: > 100 µM.
As to `Cc1c(C(=O)CSc2nc3ccccc3[nH]2)c(=O)n(-c2ccccc2)n1C`, the GI50 was inactive: > 100 µM.
For the molecule `Cc1ccc2c3c1O[C@H]1c4nc5ccccc5cc4C[C@@]4(O)[C@@H](C2)N(CC2CC2)CC[C@]314`, the GI50 was inactive: 10.4 µM.
The figure for `COc1cc(/C=C/C(=O)c2c([O-])on[n+]2-c2ccccc2)ccc1O` is inactive: 4 µM; for `COC(=O)Cn1c(=O)oc2nc(-c3ccccc3)cc(C(F)(F)F)c21` it is inactive: > 100 µM.
Under `C=C1C[C@@H]2CC[C@@]34CC5O[C@H]6C(O[C@H]7CC[C@H](CC(=O)O[C@@H]8[C@@H](C)[C@@H]9O[C@@H]%10C[C@]%11(C[C@@H]%12O[C@]%13(C[C@H](C)[C@@H]%14O[C@@H]%15CC(C(O)CO)O[C@@H]%15C[C@@H]%14O%13)C[C@H](C)[C@@H]%12O%11)O[C@@H]%10C[C@@H]9O[C@H]8CC8O[C@@H](CC[C@@H]1O2)C[C@@H](C)C8(O)CO)O[C@@H]7[C@@H]6O3)[C@H]5O4` (stereo partly specified) stands active: > 0.662 µM; under `COC(=O)C1[C@H](C(=O)OC)C1(Br)CBr` (stereo partly specified), inactive: > 100 µM; under `C=CC1=CC(C)C[C@]1(O)C(=O)OC` (stereo partly specified), active: < 0.01 µM.
The figure for `O=c1ccn([C@@H]2O[C@H](CO)[C@@H](O)[C@H]2F)c(=O)[nH]1` is inactive: > 100 µM; for `Oc1cc(-c2cccc3ccccc23)nc2ncccc12` it is active: 0.0449 µM.

For the origin of these results see ChEMBL document CHEMBL1201862, “PubChem BioAssay data set” (2004).
